Here are results for 20 molecules from PMC9911399, “Two distinct binding modes provide the RNA-binding protein RbFox with extraordinary sequence specificity”.

The labels stand for the following.
T1: RBFOX1 RRM RbFoxmut (Fox-RRM*) (Homo sapiens, UniProt Q9NWB1 109-208, R118D;E147R;N151S;E152T)
T1 sequence: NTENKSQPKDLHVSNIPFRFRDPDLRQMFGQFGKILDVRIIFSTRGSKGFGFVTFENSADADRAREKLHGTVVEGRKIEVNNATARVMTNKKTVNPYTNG

B1: AACCAGC (DNA:RNA)
RNA: GGGAGACCGGAAUUCAGAUUGUCCAACCAGCUUAAAUCCCGUCGUAGCCACCA
DNA 1: CAATCTGAATTCCGGTCTCCC
DNA 2: TGGTGGCTACGACGGGATT
B2: AAUAGAG (DNA:RNA)
RNA: B1 RNA with C27U, C28A, A29G, G30A, C31G
DNA 1: CAATCTGAATTCCGGTCTCCC
DNA 2: TGGTGGCTACGACGGGATT
B3: UCGCUGC (DNA:RNA)
RNA: B1 RNA with A25U, A26C, C27G, A29U
DNA 1: CAATCTGAATTCCGGTCTCCC
DNA 2: TGGTGGCTACGACGGGATT
B4: CGCAUUC (DNA:RNA)
RNA: B1 RNA with A25C, A26G, C28A, A29U, G30U
DNA 1: CAATCTGAATTCCGGTCTCCC
DNA 2: TGGTGGCTACGACGGGATT
B5: CUAGAAU (DNA:RNA)
RNA: B1 RNA with A25C, A26U, C27A, C28G, G30A, C31U
DNA 1: CAATCTGAATTCCGGTCTCCC
DNA 2: TGGTGGCTACGACGGGATT
B6: GCUAACA (DNA:RNA)
RNA: B1 RNA with A25G, A26C, C27U, C28A, G30C, C31A
DNA 1: CAATCTGAATTCCGGTCTCCC
DNA 2: TGGTGGCTACGACGGGATT
B7: GCAUGAA (DNA:RNA)
RNA: GGGAGACCGGAAUUCAGAUUGUCCGCAUGAAUUAAAUCCCGUCGUAGCCACCA
DNA 1: CAATCTGAATTCCGGTCTCCC
DNA 2: TGGTGGCTACGACGGGATT
B8: CGGCUUC (DNA:RNA)
RNA: B1 RNA with A25C, A26G, C27G, A29U, G30U
DNA 1: CAATCTGAATTCCGGTCTCCC
DNA 2: TGGTGGCTACGACGGGATT
B9: GCGGGAU (DNA:RNA)
RNA: B7 RNA with A27G, U28G, A31U
DNA 1: CAATCTGAATTCCGGTCTCCC
DNA 2: TGGTGGCTACGACGGGATT
B10: UCCUUUU (DNA:RNA)
RNA: B7 RNA with G25U, A27C, G29U, A30U, A31U
DNA 1: CAATCTGAATTCCGGTCTCCC
DNA 2: TGGTGGCTACGACGGGATT
B11: GGUCGAC (DNA:RNA)
RNA: B7 RNA with C26G, A27U, U28C, A31C
DNA 1: CAATCTGAATTCCGGTCTCCC
DNA 2: TGGTGGCTACGACGGGATT
B12: UAUUGCU (DNA:RNA)
RNA: B7 RNA with G25U, C26A, A27U, A30C, A31U
DNA 1: CAATCTGAATTCCGGTCTCCC
DNA 2: TGGTGGCTACGACGGGATT
B13: GAUUUUG (DNA:RNA)
RNA: B7 RNA with C26A, A27U, G29U, A30U, A31G
DNA 1: CAATCTGAATTCCGGTCTCCC
DNA 2: TGGTGGCTACGACGGGATT
B14: UGAGCGA (DNA:RNA)
RNA: B7 RNA with G25U, C26G, U28G, G29C, A30G
DNA 1: CAATCTGAATTCCGGTCTCCC
DNA 2: TGGTGGCTACGACGGGATT
B15: CAUCGUC (DNA:RNA)
RNA: B1 RNA with A25C, C27U, A29G, G30U
DNA 1: CAATCTGAATTCCGGTCTCCC
DNA 2: TGGTGGCTACGACGGGATT
B16: AGUCUCC (DNA:RNA)
RNA: B1 RNA with A26G, C27U, A29U, G30C
DNA 1: CAATCTGAATTCCGGTCTCCC
DNA 2: TGGTGGCTACGACGGGATT
B17: UUCAGCA (DNA:RNA)
RNA: B7 RNA with G25U, C26U, A27C, U28A, A30C
DNA 1: CAATCTGAATTCCGGTCTCCC
DNA 2: TGGTGGCTACGACGGGATT
B18: ACAUGAC (DNA:RNA)
RNA: B7 RNA with G25A, A31C
DNA 1: CAATCTGAATTCCGGTCTCCC
DNA 2: TGGTGGCTACGACGGGATT
B19: GGACACU (DNA:RNA)
RNA: B1 RNA with A25G, A26G, C27A, G30C, C31U
DNA 1: CAATCTGAATTCCGGTCTCCC
DNA 2: TGGTGGCTACGACGGGATT
B20: GGGCACA (DNA:RNA)
RNA: B1 RNA with A25G, A26G, C27G, G30C, C31A
DNA 1: CAATCTGAATTCCGGTCTCCC
DNA 2: TGGTGGCTACGACGGGATT

Substitutions are numbered along the chain they refer to; changes in the protein carry UniProt numbers. The list shows a part of the results.

The target in the assay is T1, RBFOX1 RRM RbFoxmut (Fox-RRM*). The assay can be described thus: EMSA; HiTS-Eq, 1 nM pool, 10 min; buffer printed only for the single-RNA assays: 10 mM Tris pH 7.5, 150 mM NaCl, 3.4 mM EDTA, 0.001% NP-40, 30 C. Conditions: tags: His6 N-terminal (pET28a); label: 5' 32P. In short, it runs like this:
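A pool of RNA with 7 randomized nucleotides, 5′-radiolabelled and with DNA-annealed flanks, was equilibrated at 1 nM for 10 min in 50 µL with purified RbFox RRM, wild type or mutant, across increasing protein concentrations. Free RNA was separated by 8% native PAGE, excised, reverse-transcribed, barcoded by PCR and sequenced. Relative association constants were obtained from read-count changes of each RNA species versus the control reaction and normalised to the cognate motif.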
(In general: In EMSA bound probe runs differently from free probe, usually more slowly.)
With B1, the binding signal was 0.0906 KA relative to UGCAUGU.
The figure for B2 is 0.135 KA relative to UGCAUGU; for B3 it is 0.0945 KA relative to UGCAUGU.
B4: the binding signal is 0.0693 KA relative to UGCAUGU.
The figure for B5 is 0.0833 KA relative to UGCAUGU; for B6 it is 0.0918 KA relative to UGCAUGU.
The same measure for B7: 0.798 KA relative to UGCAUGU; for B8: 0.16 KA relative to UGCAUGU; for B9: 0.13 KA relative to UGCAUGU.
The figure for B10 is 0.0728 KA relative to UGCAUGU; for B11 it is 0.0842 KA relative to UGCAUGU.
Turning to B12, the binding signal is 0.132 KA relative to UGCAUGU.
The same measure for B13: 0.102 KA relative to UGCAUGU.
The same measure for B14: 0.0866 KA relative to UGCAUGU; for B15: 0.132 KA relative to UGCAUGU.
In the case of B16, the binding signal is 0.0783 KA relative to UGCAUGU.
With B17, the binding signal is 0.124 KA relative to UGCAUGU.
The figure for B18 is 0.0881 KA relative to UGCAUGU; for B19 it is 0.0497 KA relative to UGCAUGU.
The same measure for B20: 0.073 KA relative to UGCAUGU.
